The supplement of paper PMC4967469

Assays:
Test in all cases: Viability of human cancer cell lines after 72 h of drug (GDSC screen)
MG-132 = compound: CC(C)C[C@@H](C=O)NC(=O)[C@H](CC(C)C)NC(=O)[C@H](CC(C)C)NC(=O)OCc1ccccc1 [MG-132]; conditions: top dose 1 µM
Description: (§1)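 Human cancer cell lines in 384-well plates, medium with 10% serum, drug for 72 h over a 256-fold dose range (nine 2-fold or five 4-fold steps up to the top dose). Adherent lines were fixed and stained with the nucleic acid dye Syto60, suspension lines read with resazurin; signal relative to control wells, capped at 0 and 100%. One two-parameter sigmoid per drug and line, fitted in a mixed model over all curves with the slope shared within a line.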

Pazopanib = compound: Cc1ccc(Nc2nccc(N(C)c3ccc4c(C)n(C)nc4c3)n2)cc1S(N)(=O)=O [Pazopanib]; conditions: top dose 8 µM
Description: as §1

SB 216763 = compound: Cn1cc(C2=C(c3ccc(Cl)cc3Cl)C(=O)NC2=O)c2ccccc21 [SB 216763]; conditions: top dose 10 µM; top dose inferred
Description: as §1

GDC0941 = compound: CS(=O)(=O)N1CCN(Cc2cc3nc(-c4cccc5[nH]ncc45)nc(N4CCOCC4)c3s2)CC1 [GDC0941]; conditions: top dose 4 µM; screen: GDSC drug entry 1527; top dose inferred
Description: as §1

AR-42 = compound: CC(C)[C@H](C(=O)Nc1ccc(C(=O)NO)cc1)c1ccccc1 [AR-42]; conditions: top dose 5.12 µM; top dose inferred
Description: as §1

CEP-701 = compound: C[C@]12O[C@H](C[C@]1(O)CO)n1c3ccccc3c3c4c(c5c6ccccc6n2c5c31)CNC4=O [CEP-701]; conditions: top dose 2 µM; top dose inferred
Description: as §1

Row | Cell Line | AUC (MG-132) | IC50 (MG-132) [nM] | AUC (Pazopanib) | IC50 (Pazopanib) [nM] | AUC (SB 216763) | IC50 (SB 216763) [nM] | AUC (GDC0941) | IC50 (GDC0941) [nM] | AUC (AR-42) | IC50 (AR-42) [nM] | AUC (CEP-701) | IC50 (CEP-701) [nM]
1 | NAMALWA (Burkitt lymphoma, suspension) | 0.697 | 201 | 0.984 | > 8000 | 0.986 | > 10000 | 0.831 | 1990 | 0.087 | < 20 | 0.619 | 250
2 | NB6 (neuroblastoma, adherent) | 0.888 | > 1000 | 0.891 | > 8000 | 0.948 | > 10000 | 0.973 | > 4000 | 0.404 | 164 | 0.796 | 1190
3 | NB10 (neuroblastoma, adherent) | 0.882 | > 1000 | 0.987 | > 8000 | 0.987 | > 10000 | 0.853 | 3010 | 0.584 | 541 | 0.683 | 401
4 | NB12 (neuroblastoma, adherent) | 0.807 | 738 | 0.957 | > 8000 | 0.928 | > 10000 | 0.769 | 2050 | 0.299 | 70.6 | 0.78 | 1140
5 | NB13 (neuroblastoma, adherent) | 0.702 | 214 | 0.982 | > 8000 | 0.902 | > 10000 | 0.966 | > 4000 | 0.307 | 98.8 | 0.728 | 508
6 | NB(TU)1-10 (neuroblastoma, adherent) | 0.898 | 959 | 0.993 | > 8000 | 0.98 | > 10000 | 0.992 | > 4000 | 0.432 | 214 | 0.908 | > 2000
7 | NCI-H187 (small cell lung carcinoma, suspension) | 0.987 | > 1000 | 0.963 | > 8000 | 0.987 | > 10000 | 0.987 | > 4000 | 0.529 | 385 | 0.815 | 1220
8 | NCI-H209 (small cell lung carcinoma, suspension) | 0.934 | > 1000 | 0.961 | > 8000 | 0.98 | > 10000 | 0.926 | > 4000 | 0.986 | > 5120 | 0.586 | 218
9 | NCI-H226 (lung squamous cell carcinoma, adherent) | 0.987 | > 1000 | 0.963 | > 8000 | 0.986 | > 10000 | 0.854 | 3420 | 0.469 | 262 | 0.873 | > 2000
10 | NCI-H322M (lung adenocarcinoma, suspension) | 0.971 | > 1000 | 0.987 | > 8000 | 0.969 | > 10000 | 0.931 | > 4000 | 0.719 | 1570 | 0.983 | > 2000
11 | NCI-H345 (small cell lung carcinoma, suspension) | 0.975 | > 1000 | 0.99 | > 8000 | 0.99 | > 10000 | 0.956 | > 4000 | 0.47 | 264 | 0.946 | > 2000
12 | NCI-H446 (small cell lung carcinoma, semi-adherent) | 0.939 | > 1000 | 0.97 | > 8000 | 0.985 | > 10000 | 0.501 | 252 | 0.368 | 134 | 0.748 | 686
13 | NCI-H524 (small cell lung carcinoma, suspension) | 0.889 | 927 | 0.986 | > 8000 | 0.966 | > 10000 | 0.881 | 3410 | 0.657 | 829 | 0.55 | 168
14 | NCI-H716 (large intestine, suspension) | 0.966 | > 1000 | 0.77 | 3830 | 0.977 | > 10000 | 0.561 | 384 | 0.724 | 1660 | 0.653 | 371
15 | NCI-H720 (lung carcinoid, suspension) | 0.988 | > 1000 | 0.992 | > 8000 | 0.992 | > 10000 | 0.789 | 1610 | 0.949 | > 5120 | 0.735 | 544
16 | NCI-H847 (small cell lung carcinoma, adherent) | 0.798 | 375 | 0.983 | > 8000 | 0.991 | > 10000 | 0.767 | 1220 | 0.225 | 62.2 | 0.632 | 267
17 | NCI-H1092 (small cell lung carcinoma, suspension) | 0.785 | 431 | 0.99 | > 8000 | 0.982 | > 10000 | 0.954 | > 4000 | 0.48 | 282 | 0.901 | > 2000
18 | NCI-H1155 (large cell lung carcinoma, suspension) | 0.876 | 694 | 0.984 | > 8000 | 0.991 | > 10000 | 0.973 | > 4000 | 0.524 | 368 | 0.708 | 426
19 | NCI-H1395 (lung adenocarcinoma, adherent) | 0.972 | > 1000 | 0.961 | > 8000 | 0.96 | > 10000 | 0.788 | 2410 | 0.76 | 2370 | 0.535 | 161
20 | NCI-H1436 (small cell lung carcinoma, suspension) | 0.909 | > 1000 | 0.97 | > 8000 | 0.985 | > 10000 | 0.684 | 883 | 0.601 | 631 | 0.956 | > 2000

IC50 is the fitted dose that halves viability relative to control wells, and lower means more sensitive; a limit (>, <) means that the fit lies beyond the doses tested. For AUC the same curve is integrated over the 256-fold range of doses and scaled to a fraction: 1 means no effect, lower means more sensitive. For part of these data: Where the top dose is marked as inferred, it comes from the curve model; the source does not state it. For part of these data: Where an entry number is given, a second screen of the drug exists; the two often differ.
